Measured values reported in PubChem BioAssay AID651568 (National Center for Advancing Translational Sciences (NCATS), 2012).
Hit rate of the full screen: of about 1,200 compounds, about 55 (5%) were called active. About 15% were inconclusive and are not listed. Calls come from the whole dose curve; as a rule, active = well fitted inhibition curve with a large enough effect; inconclusive = small, poorly fitted or top-dose-only effect; inactive = no such curve, though single readings can be large or run the other way. The list shows a part of the results.

Test: qHTS Assay to Find Inhibitors of Chronic Active B-Cell Receptor Signaling: Hit Validation in Renilla Reporter Assay; note: nearly all actives have a fitted effect of over 70% in size
Conditions: TMD8 IkB-Renilla luciferase reporter, NF-kB signaling; series mostly up to 57.5 µM; activity change, negative = inhibition: at the top concentration
Method in brief: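 Orthogonal secondary test of primary-screen hits in ABC-DLBCL cells carrying constitutively expressed IkB-Photinus and Renilla luciferase reporters, read by Dual-Glo luminescence; luciferases differ from the primary assay's click beetle enzymes, to exclude assay-specific artifacts.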
% is set by controls: 0 for no effect and ±100 for the full control effect; potency is the fitted concentration of half-maximal effect.

| Structure (SMILES) | activity change, negative = inhibition | Potency |
| --- | --- | --- |
| COc1ccccc1CNS(=O)(=O)c1ccc(-c2cnc(C3CC3)o2)cc1 | inactive: 23.8% | – |
| Nc1cc(=O)[nH]c(SCC(=O)Nc2cc(Cl)cc(Cl)c2)n1 | inactive: 19% | – |
| C[C@]12C=CC(=O)C=C1CC[C@@H]1[C@@H]2[C@@H](O)C[C@@]2(C)[C@H]1CC[C@]2(O)C(=O)COC(=O)CCC(=O)O | inactive: 4.63% | – |
| COc1ccc(/C=N\NC(=O)c2c(C)nc3ccc(Br)cn23)cc1 | inactive: -14.5% | – |
| Cc1cc(C)c2nc(SCC(=O)N3CC(=O)Nc4ccccc43)c(C#N)cc2c1 | inactive: -6.04% | – |
| COc1cc(OC)cc(C(=O)N/N=C(\C)CC(=O)Nc2ccccn2)c1 | inactive: -4.71% | – |
| COc1ccc(NCC(=O)n2c(C)c(C)c3ccccc32)cc1 | inactive: 3.6% | – |
| COc1ccccc1-n1cnc2cc(NCc3cccs3)ccc21 | inactive: 1.53% | – |
| Cc1cc(C)nc(SCc2ccc(C(=O)N/N=C/c3cccnc3)cc2)n1 | inactive: 4.12% | – |
| COc1ccc(S(=O)(=O)N2CCCCC2)cc1NC(=O)c1ccc(OC)c(OC)c1 | inactive: 3.52% | – |
| COc1cc2c(cc1OC)-c1cc(NC3CCCCC3)nc(=O)n1CC2 | inactive: -8.08% | – |
| O=C(COC(=O)Cc1ccc(-c2ccccc2)cc1)NCc1ccccc1 | inactive: 0.885% | – |
| CCOc1ccc(NC(=O)c2cc(OC)nc3ccccc23)cc1 | inactive: -0.0858% | – |
| COc1cccc(/C=C/C(=O)Nc2cc(S(=O)(=O)N3CCOCC3)ccc2OC)c1 | inactive: 1.3% | – |
| CC(C)(C)NNC(=S)Nc1cccc(F)c1 | inactive: 4.4% | – |
| Cc1ccc(-c2ccccc2NC(=O)CS(=O)CC(=O)Nc2ccc(C)c(Cl)c2)o1 (stereo not given) | inactive: 14.6% | – |
| COc1ccc(/C(C)=N/Nc2nc3ccccc3nc2C)cc1OC | inactive: -3.76% | – |
| O=C(COc1ccccc1-c1ccccc1)N/N=C/c1ccc2ccccc2c1 | inactive: -0.205% | – |
| CCOc1ccccc1/C=N/Nc1nc2c(N)ncnc2n1[C@H]1O[C@@H](CO)[C@H](O)[C@@H]1O | inactive: -7.31% | – |
| O=C(CN1CCCc2ccccc21)N/N=C/c1ccccc1O | inactive: 8.8% | – |
| CCCCC(=O)O[C@]1(C(=O)CO)CC[C@H]2[C@@H]3CCC4=CC(=O)CC[C@]4(C)[C@H]3[C@@H](O)C[C@@]21C | inactive: -1.63% | – |
| Cc1cccc(OCCCC(=O)NNC(=O)c2cccc(N(C)C)c2)c1 | inactive: 9.82% | – |
| CCOc1ccc2nc(NS(=O)(=O)Cc3ccccc3)sc2c1 | inactive: -25.9% | – |
| Cc1nc2c(C(F)(F)F)cccc2c2c1CCS2 | inactive: -5.86% | – |
| COc1ccc(/C=C/c2ccncc2)cc1OC | inactive: 1.23% | – |
| C=CCNC(=S)N/N=C/c1ccc(C(C)(C)C)cc1 | inactive: -3.61% | – |
| Cc1ccc(NC(=S)NNC(C)(C)C)cc1 | inactive: 17.6% | – |

| Structure (SMILES) | activity change, negative = inhibition | Potency |
| --- | --- | --- |
| COc1cc2c(cc1OC)C(c1cc(C)ccc1C)CC(=O)N2 (stereo not given) | inactive: 3.36% | – |
| N#CC(C(=S)Nc1ccccc1)c1nc2ccccc2[nH]1 (stereo not given) | inactive: -4.69% | – |
| CC1=Nc2cc(C(=O)NCCCOC(C)C)ccc2Sc2ccc(C)cc21 | inactive: 20.7% | – |
| COc1ccc(/C=N/NC(=O)c2[nH]c3ccc(Br)cc3c2-c2ccccc2)c(C(=O)O)c1OC | inactive: -2.12% | – |
| CCOC(=O)c1ccccc1NS(=O)(=O)c1ccc(OCC)cc1 | inactive: 22.1% | – |
| CCCN1C(=O)C(=O)c2cc(Cl)ccc21 | inactive: 0.504% | – |
| CCN(c1ccccc1)S(=O)(=O)c1ccc(C(=O)NC2CCN(Cc3ccccc3)CC2)cc1 | inactive: -5.33% | – |
| CC1=CC(C)(C)N(S(=O)(=O)c2ccc(C)cc2)c2cc(C)ccc21 | inactive: -7.09% | – |
| COc1cc2c(c(OC)c1OC)-c1ccc(OC)c(=O)cc1[C@@H](NC(C)=O)CC2 | inactive: -10.9% | – |
| O=[N+]([O-])c1cc(O)c2ncccc2c1 | inactive: -17.5% | – |
| O=C(Nc1ccc([N+](=O)[O-])cc1)Nc1ccon1 | inactive: -10.3% | – |
| CC(C)(C)NC(=S)N/N=C/c1cccnc1 | inactive: 1.99% | – |
| COc1cc(C(c2sc3nc(C)nn3c2O)N2CCN(c3ccccc3)CC2)cc(OC)c1OC (stereo not given) | inactive: 10.5% | – |
| COc1cc(C(=O)Nc2ccc(C)cc2)c2ccccc2n1 | inactive: -11.4% | – |
| COc1cc(C(=O)N/N=C(\C)c2ccc3c(c2)OCO3)cc(OC)c1OC | inactive: 1.79% | – |
| O=C(COc1ccccc1-c1ccccc1)NN=C1CCCC1 | inactive: 4.23% | – |
| CSc1nc(N(C)NC(=O)c2ccc(Cl)cc2)c2ccccc2n1 | inactive: -26.1% | – |
| Cc1ccccc1NC(=S)c1ccc2ccccc2n1 | inactive: 15.7% | – |
| CCOc1ccc(N(CC(=O)Nc2ccccc2OC)S(=O)(=O)c2ccccc2)cc1 | inactive: 1.08% | – |
| COc1ccc(NS(=O)(=O)c2cc(NC(=O)CNC(=O)c3cccc(OC)c3)ccc2C)cc1 | inactive: 16.9% | – |
| CCOc1ccc(C(=O)c2cc([N+](=O)[O-])ccc2N2CCOCC2)cc1 | inactive: -15.7% | – |
| Nc1ccc(C(=O)n2c3ccccc3c3ccccc32)cc1 | inactive: -2.47% | – |
| COc1ccc(S(=O)(=O)Nc2cc3c(C(C)=O)c(C)oc3c3ccccc23)cc1 | inactive: 24.7% | – |
| COc1ccc(-c2c/c(=N\c3nc(-c4ccccc4)c(C)s3)c3ccccc3o2)cc1O | inactive: -3.81% | – |
| COc1ccc(C)cc1NS(=O)(=O)c1ccc(-c2cnc(C3CC3)o2)cc1 | inactive: 22.8% | – |
| COc1ccc(OC)c(C(=O)COC(=O)c2[nH]c(C)c(C(C)=O)c2C)c1 | inactive: 7.49% | – |
| Cc1ccc2[nH]c(C(=O)NN=C3CCCCC3)c(-c3ccccc3)c2c1 | inactive: -4.31% | – |

| Structure (SMILES) | activity change, negative = inhibition | Potency |
| --- | --- | --- |
| COc1ccc(/C=N/NC(=O)c2[nH]c3ccc(Br)cc3c2-c2ccccc2)cc1 | inactive: -15% | – |
| Cc1cnn(CCC(=O)NNC(=S)NCC(C)C)c1 | inactive: 1.59% | – |
| CCCn1nc(Oc2nc(N(C)C)nc(N(C)C)n2)ccc1=O | inactive: -0.0736% | – |
| CCOCCOC(=O)c1[nH]c2c(c1C)C(=O)CC(c1cccs1)C2 (stereo not given) | inactive: -13% | – |
| CC1CCCN(c2ccc([N+](=O)[O-])cc2C(=O)c2ccccc2)C1 (stereo not given) | inactive: 1.52% | – |
| COc1ccccc1CNC(=O)CSc1ccc(C)cc1 | inactive: 3.24% | – |
| COc1ccc(C(=O)n2c(-c3ccco3)nc3ccccc32)cc1 | inactive: 3.66% | – |
| COc1cc(OC)c2c(-c3cccc(-c4ccc(O)cc4)c3)cc(=O)oc2c1 | inactive: -22.9% | – |
| Cn1c(=O)n(Cc2ccccc2Br)c2ccccc21 | inactive: 2.1% | – |
| CCN(c1ccccc1)S(=O)(=O)c1ccc(C(=O)NNC(=O)c2ccccc2F)cc1 | inactive: 1.63% | – |
| CN(C)c1ccc(-c2nn3c(-c4ccccc4Cl)nnc3s2)cc1 | inactive: 5.16% | – |
| CC(=O)c1ccsc1-c1c(C)cc2oc(=O)cc(-c3ccccc3)c2c1C | inactive: -0.446% | – |
| COC(=O)c1[nH]c2c(c1C)C(=O)CC(c1ccccc1)C2 (stereo not given) | inactive: -2.41% | – |
| Cc1noc(C)c1COc1ccc(C(=O)NCc2cccs2)cc1 | inactive: 4.11% | – |
| COc1ccc(/C=C/C(=O)c2cc(F)ccc2OC(=O)c2ccc(OC)c(OC)c2)cc1OC | – | active: 7.57 µM |
| CCCNS(=O)(=O)c1cccc(C(=O)OCc2cc(=O)oc3cc(OC)ccc23)c1 | inactive: 32.7% | – |
| Cc1ccc(NC(=O)c2ccco2)c([N+](=O)[O-])c1 | inactive: 0.0881% | – |
| CCN(CC)c1ccc(/C=N/N=C(N)N)c(O)c1 | inactive: -24% | – |
| C#CCOCCOCCOCCNc1nc(N2CCN(C(=O)[C@H](C(C)C)n3cc(CCO)nn3)CC2)nc(N2CCN(C(=O)[C@H]([C@@H](C)CC)n3cc(CCCN=C(N)N)nn3)CC2)n1 | inactive: -4.11% | – |
| Cc1cc(C)n(-c2nc3ccccc3c(=O)n2OCC#N)n1 | – | active: 16.9 µM |
| FC(F)(F)c1nnc2ccc(Cl)nn12 | inactive: 4.86% | – |
| COCCNC(=S)N/N=C(\C)c1ccc2cc(OC)ccc2c1 | inactive: -9.27% | – |
| Cc1csc(NC(=S)Nc2cccc(Cl)c2)n1 | inactive: -22.3% | – |
| CC[C@]1(O)C[C@@H]2CN(CCc3c([nH]c4ccccc34)[C@@](C(=O)OC)(c3cc4c(cc3OC)N(C)[C@H]3[C@@](O)(C(=O)OC)[C@H](OC(C)=O)[C@]5(CC)C=CCN6CC[C@]43[C@@H]65)C2)C1 | inactive: -22.6% | – |
| CCOC(=O)Nc1ccc2nc(N3CCCCCC3)sc2c1 | inactive: 6.68% | – |
| CCCCC[C@H](O)/C=C/[C@@H]1[C@@H](CCCCCCC(=O)O)[C@@H](O)C[C@H]1O | inactive: -7.05% | – |
| S=c1[nH]cnc2sc(-c3ccccc3)cc12 | inactive: 6.87% | – |

| Structure (SMILES) | activity change, negative = inhibition | Potency |
| --- | --- | --- |
| COc1ccc(C2CC(=O)Nc3cc(OC)c(OC)cc32)cc1Br (stereo not given) | inactive: 3.32% | – |
| COc1ccc(S(N)(=O)=O)cc1C(=O)OCCCOC(=O)c1cc(S(N)(=O)=O)ccc1OC | inactive: 2.04% | – |
| COc1ccc(-c2ccc(CCC(=O)O)n2-c2ccccc2OC)cc1 | inactive: -1.5% | – |
| COc1ccc(/C=N\NC(=O)c2ccccc2F)cc1COc1ccc(F)cc1F | inactive: -2% | – |
| Cc1cc(NC2CCCCC2)nc2ccccc12 | inactive: 2.17% | – |
| CCOc1ccc(Nc2cc(C)nc(-n3nc(C)cc3C)n2)cc1 | inactive: -24.1% | – |
| CCOc1ccccc1C1C2=C(COC2=O)Nc2cc3c(cc21)OCO3 (stereo not given) | inactive: -23.1% | – |
| Cc1c(CCC(=O)NCCCC(=O)O)c(=O)oc2cc3oc4c(c3cc12)CCCC4 | inactive: 0.969% | – |
| CC1CCC2C(=O)N(c3ccc(C(=O)Oc4cccc5cccnc45)cc3)C(=O)C2C1 (stereo not given) | inactive: 6.04% | – |
| Cc1ccccc1OCCc1c(C)[nH]c(=S)[nH]c1=O | inactive: -6.58% | – |
| N#Cc1cccc2c1-c1ccccc1/C2=N/NC(N)=S | inactive: -22.6% | – |
| CN1CCN(C(=S)NC(=O)c2ccc(-c3ccccc3)cc2)CC1 | inactive: -28.4% | – |
| COc1ccc(C)cc1Nc1cc(C)nc2ncnn12 | inactive: 0.723% | – |
| Cc1csc(NC(=S)NC(=O)c2ccccc2)n1 | inactive: 7.99% | – |
| CCOC(=O)c1[nH]c(C)c(C(=O)c2cc(F)ccc2F)c1C | inactive: -10.3% | – |
| O=C(CCl)Nc1cc(S(=O)(=O)N2CCCCCC2)ccc1Cl | inactive: -87.8% | – |
| Oc1cccc(Nc2nc(N3CCOCC3)nc(N3CCOCC3)n2)c1 | inactive: -26.5% | – |
| NC(=S)N/N=C/c1ccccc1OC(=O)/C=C/c1ccccc1 | inactive: -12.7% | – |
| O=C(c1cc([N+](=O)[O-])ccc1N1CCOCC1)N1CCN(c2ccccc2)CC1 | inactive: 0.66% | – |
| Cc1ccc(Cl)cc1NC(=S)N/N=C/c1cccc2ccccc12 | inactive: 31.9% | – |
| Cc1cc2c(cc(C(=O)OCC(=O)NCc3cccs3)n2C(C)C)o1 | inactive: -16.9% | – |
| COC(=O)c1cc(C#N)c(N(C)Cc2ccccc2)nc1C | inactive: 1.83% | – |
| O=C(N/N=C/c1ccc(O)cc1)c1[nH]c2ccc(Br)cc2c1-c1ccccc1 | inactive: 17.4% | – |
| CCCCCOC(=O)c1[nH]c2c(c1C)C(=O)CC(c1ccco1)C2 (stereo not given) | inactive: -11.5% | – |
